# The list shows a part of the results.
# B1: RSVL (Crotalus atrox), P21963 (protein)
# chain: NNCPLDWLPMNGLCYKIFNQLKTWEDAEMFCRKYKPGCHLASFHRYGESLEIAEYISDYHKGQENVWIGLRDKKKDFSWEWTDRSCTDYLTWDKNQPDHYQNKEFCVELVSLTGYRLWNDQVCESKDAFLCQCKF
# What was measured:
# Experiment in all cases: glycan array binding signal (z-score within array); higher = stronger binding
# Details in all cases: glycan notation: IUPAC condensed, linker removed
# [1] = biological target: Neu5Ac(a2-3)Gal(b1-4)[Fuc(a1-3)]GlcNAc(b1-3)Gal(b1-4)[Fuc(a1-3)]GlcNAc(b1-3)Gal(b1-4)[Fuc(a1-3)]GlcNAc
# Procedure, shortened: (§1)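 Glycan array binding is given as a within-array Z-score, which can be read as non-binding when negative. The arrays, 3228 of them, came from the Consortium for Functional Glycomics database and were retained only where the protein sequence was available. Z-scores were averaged across arrays of the same protein sequence at different concentrations or buffers and across linkers.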
# [2] = biological target: Neu5Ac(a2-3)Gal(b1-4)[Fuc(a1-3)]GlcNAc6S
# Procedure, shortened: as §1
# [3] = biological target: Neu5Ac(a2-3)Gal6S(b1-4)GlcNAc
# Procedure, shortened: as §1
# [4] = biological target: Neu5Ac(a2-3)Gal6S(b1-4)[Fuc(a1-3)]GlcNAc
# Procedure, shortened: as §1
# [5] = biological target: Neu5Ac(a2-3)GalNAc
# Procedure, shortened: as §1
# [6] = biological target: Neu5Ac(a2-3)GalNAc(b1-4)GlcNAc
# Procedure, shortened: as §1
# [7] = biological target: Neu5Ac(a2-3)[GalNAc(b1-4)]Gal(b1-4)Glc
# Procedure, shortened: as §1
# [8] = biological target: Neu5Ac(a2-3)[GalNAc(b1-4)]Gal(b1-4)GlcNAc
# Procedure, shortened: as §1
# [9] = biological target: Neu5Ac(a2-3)[Neu5Ac(a2-6)]GalNAc
# Procedure, shortened: as §1
# [10] = biological target: Neu5Ac(a2-6)Gal
# Procedure, shortened: as §1
# [11] = biological target: Neu5Ac(a2-6)Gal(b1-4)Glc
# Procedure, shortened: as §1
# [12] = biological target: Neu5Ac(a2-6)Gal(b1-4)GlcNAc
# Procedure, shortened: as §1
# [13] = biological target: Neu5Ac(a2-6)Gal(b1-4)GlcNAc(b1-3)Gal(b1-4)GlcNAc
# Procedure, shortened: as §1
# [14] = biological target: Neu5Ac(a2-6)Gal(b1-4)GlcNAc(b1-3)Gal(b1-4)[Fuc(a1-3)]GlcNAc(b1-3)Gal(b1-4)[Fuc(a1-3)]GlcNAc
# Procedure, shortened: as §1
# [15] = biological target: Neu5Ac(a2-6)Gal(b1-4)GlcNAc6S
# Procedure, shortened: as §1
# [16] = biological target: Neu5Ac(a2-6)GalNAc
# Procedure, shortened: as §1
# [17] = biological target: Neu5Ac(a2-6)GalNAc(b1-4)GlcNAc
# Procedure, shortened: as §1
# [18] = biological target: Neu5Ac(a2-8)Neu5Ac
# Procedure, shortened: as §1
# [19] = biological target: Neu5Ac(a2-8)Neu5Ac(a2-3)Gal(b1-4)Glc
# Procedure, shortened: as §1
# [20] = biological target: Neu5Ac(a2-8)Neu5Ac(a2-3)[GalNAc(b1-4)]Gal(b1-4)Glc
# Procedure, shortened: as §1
# [21] = biological target: Neu5Ac(a2-8)Neu5Ac(a2-8)Neu5Ac
# Procedure, shortened: as §1
# [22] = biological target: Neu5Ac(a2-8)Neu5Ac(a2-8)Neu5Ac(a2-3)Gal(b1-4)Glc
# Procedure, shortened: as §1
# [23] = biological target: Neu5Ac(a2-8)Neu5Ac(a2-8)Neu5Ac(a2-3)[GalNAc(b1-4)]Gal(b1-4)Glc
# Procedure, shortened: as §1
# [24] = biological target: Neu5Ac(a2-8)Neu5Ac(a2-8)Neu5Ac(a2-8)Neu5Ac(a2-3)[GalNAc(b1-4)]Gal(b1-4)Glc
# Procedure, shortened: as §1
# [25] = biological target: Neu5Ac(b1-6)GalNAc
# Procedure, shortened: as §1
# [26] = biological target: Neu5Ac(b2-6)Gal(b1-4)GlcNAc
# Procedure, shortened: as §1
# [27] = biological target: Neu5Ac9Ac(a2-6)Gal(b1-4)GlcNAc
# Procedure, shortened: as §1
# [28] = biological target: Neu5Gc(a2-3)Gal(b1-3)GlcNAc
# Procedure, shortened: as §1
# [29] = biological target: Neu5Gc(a2-3)Gal(b1-3)[Fuc(a1-4)]GlcNAc
# Procedure, shortened: as §1
# [30] = biological target: Neu5Gc(a2-3)Gal(b1-4)Glc
# Procedure, shortened: as §1
# [31] = biological target: Neu5Gc(a2-3)Gal(b1-4)GlcNAc
# Procedure, shortened: as §1
# [32] = biological target: Neu5Gc(a2-3)Gal(b1-4)[Fuc(a1-3)]GlcNAc
# Procedure, shortened: as §1
# [33] = biological target: Neu5Gc(a2-6)Gal(b1-4)GlcNAc
# Procedure, shortened: as §1
# [34] = biological target: Neu5Gc(a2-6)GalNAc
# Procedure, shortened: as §1
binder,measurement,setting,value
B1,glycan array binding signal (z-score),[1],-0.368
same,glycan array binding signal (z-score),[2],-0.345
same,glycan array binding signal (z-score),[3],-0.329
same,glycan array binding signal (z-score),[4],-0.37
same,glycan array binding signal (z-score),[5],-0.367
same,glycan array binding signal (z-score),[6],-0.342
same,glycan array binding signal (z-score),[7],-0.241
same,glycan array binding signal (z-score),[8],-0.365
same,glycan array binding signal (z-score),[9],-0.368
same,glycan array binding signal (z-score),[10],-0.367
same,glycan array binding signal (z-score),[11],-0.305
same,glycan array binding signal (z-score),[12],-0.366
same,glycan array binding signal (z-score),[13],-0.365
same,glycan array binding signal (z-score),[14],-0.368
same,glycan array binding signal (z-score),[15],-0.366
same,glycan array binding signal (z-score),[16],-0.314
same,glycan array binding signal (z-score),[17],-0.369
same,glycan array binding signal (z-score),[18],-0.367
same,glycan array binding signal (z-score),[19],-0.369
same,glycan array binding signal (z-score),[20],-0.358
same,glycan array binding signal (z-score),[21],-0.366
same,glycan array binding signal (z-score),[22],-0.366
same,glycan array binding signal (z-score),[23],-0.362
same,glycan array binding signal (z-score),[24],-0.367
same,glycan array binding signal (z-score),[25],-0.367
same,glycan array binding signal (z-score),[26],-0.301
same,glycan array binding signal (z-score),[27],-0.34
same,glycan array binding signal (z-score),[28],-0.365
same,glycan array binding signal (z-score),[29],-0.232
same,glycan array binding signal (z-score),[30],-0.365
same,glycan array binding signal (z-score),[31],-0.361
same,glycan array binding signal (z-score),[32],-0.369
same,glycan array binding signal (z-score),[33],-0.366
same,glycan array binding signal (z-score),[34],-0.366
